# Assay results published in PubChem BioAssay AID488969 (Vanderbilt High Throughput Screening Facility, 2010).
# In all, about 110,000 compounds were measured (“z-score”: median about -0.1, highest 2% from about 2 on). The list shows a part of the results. The source made the active and inactive calls.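 How the source made its calls: active means z-score in the third read window above 3 or below -3; inactive means the rest.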
# Biological target: Metabotropic glutamate receptor 8 (Rattus norvegicus) (UniProt P70579)
# Test: rat mGluR8 modulators via GIRK flux, primary screen, cell-based, thallium flux, HTS (AID 488969)
# Settings: HEK293 rat mGluR8, GIRK (G protein-gated inwardly rectifying potassium channel) thallium flux, FluoZin2; at 10 µM; stronger effect = higher value; submaximal glutamate (EC20) added with thallium
# Chain of UniProt P70579 (P70579 whole entry, looked up): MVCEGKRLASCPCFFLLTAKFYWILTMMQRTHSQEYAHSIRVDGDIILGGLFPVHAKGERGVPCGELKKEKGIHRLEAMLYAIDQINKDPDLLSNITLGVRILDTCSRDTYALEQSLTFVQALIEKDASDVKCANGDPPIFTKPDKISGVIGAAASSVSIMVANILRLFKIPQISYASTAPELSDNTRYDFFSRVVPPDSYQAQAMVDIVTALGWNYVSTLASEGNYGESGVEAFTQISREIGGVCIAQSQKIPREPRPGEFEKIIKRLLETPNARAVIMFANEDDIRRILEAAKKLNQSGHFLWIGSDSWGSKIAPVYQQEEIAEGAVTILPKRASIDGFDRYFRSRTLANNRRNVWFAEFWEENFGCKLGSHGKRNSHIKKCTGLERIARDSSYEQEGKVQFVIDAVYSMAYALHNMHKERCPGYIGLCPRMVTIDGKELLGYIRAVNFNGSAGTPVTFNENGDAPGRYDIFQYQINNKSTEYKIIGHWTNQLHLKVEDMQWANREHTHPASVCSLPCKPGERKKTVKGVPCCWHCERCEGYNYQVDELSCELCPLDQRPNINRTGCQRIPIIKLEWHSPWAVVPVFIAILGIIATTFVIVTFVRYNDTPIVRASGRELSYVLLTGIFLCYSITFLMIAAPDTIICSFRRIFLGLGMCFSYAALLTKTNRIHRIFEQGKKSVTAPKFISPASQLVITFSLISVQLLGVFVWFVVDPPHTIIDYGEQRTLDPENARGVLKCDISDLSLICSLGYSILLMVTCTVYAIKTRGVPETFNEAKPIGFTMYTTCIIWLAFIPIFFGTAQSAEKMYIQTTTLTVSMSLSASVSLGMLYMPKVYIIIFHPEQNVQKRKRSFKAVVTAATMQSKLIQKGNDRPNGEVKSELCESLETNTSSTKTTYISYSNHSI
row,Structure (SMILES),z-score
1,Cc1cccc(N2C(=O)CC(N3CCN(c4ccccc4)CC3)C2=O)c1 (configuration not stated),-0.369
2,Cc1ccc(NC(=O)CN(c2cc(C)cc(C)c2)S(=O)(=O)c2c(C)noc2C)nc1,-0.225
3,CCn1cc(C(=O)OCC(=O)Nc2ccc(S(=O)(=O)N3CCCC3)cc2)c(=O)c2ccc(C)nc21,-0.0852
4,Cc1ccc(S(=O)(=O)N2C(=O)C(c3ccccc3)SC2=Nc2ccccc2)cc1 (configuration not stated),0.00767
5,Cc1nc(-c2ccc3c(c2)OCO3)cs1,0.0239
6,Cc1ccc2c(c1)NC(=O)C(CC(=O)NC1CCCCC1C)O2 (configuration not stated),0.0477
7,CCCOc1cc(CN2CCCCC2)cc(C(C)=O)c1,0.184
8,COC(=O)c1ccc(NC(=O)C2C3C=CC(O3)C2C(=O)O)cc1 (configuration not stated),-0.438
9,CCOc1cc(C)c(S(=O)(=O)N2CCCC2)cc1C,-0.425
10,CC(=O)Nc1ccc2c(c1)n(C)c(=O)n2C,-0.163
11,C/C(=N\NS(C)(=O)=O)c1ccc(C)cc1,-0.0785
12,COc1ccc(CC(=O)NNc2ncnc3c2cnn3-c2ccc(C)cc2)cc1,-0.0179
13,CCOC(=O)CC(N)c1ccc2c(c1)OCO2 (configuration not stated),-0.0325
14,COc1ccc(C2OC(=O)CC2C(=O)NC(C)C)cc1 (configuration not stated),-0.591
15,CC1CCCCC1NC(=O)Cn1nnc(-c2ccc(Cl)cc2)n1 (configuration not stated),0.119
16,CCC(C)NC(=O)Cn1nc([N+](=O)[O-])c(Cl)c1C (configuration not stated),-0.0165
17,Cc1ccc2c(c1)CCCN2C(=O)c1cc2ccccc2oc1=O,0.189
18,COc1ccc(C(=O)CSc2ccc(-c3ccccc3)nn2)cc1,-0.139
19,CC(=O)OC(C(=O)NC1CCCCC1)c1ccc(C)cc1 (configuration not stated),-0.0168
20,O=C1CS/C(=C\[N+](=O)[O-])N1c1ccccc1,0.173
21,CCn1c(SCC(=O)Nc2cc(NC(C)=O)ccc2OC)nnc1-c1ccncc1,-0.137
22,CCNC(=O)c1sccc1-n1cccc1,-0.0281
23,COCc1nnc(NC(=O)C(C)C)s1,active: 3.48
24,CC12c3ccccc3C(c3ccccc31)C1C(=O)N(c3cccnc3)C(=O)C12 (configuration not stated),-0.314

row,Structure (SMILES),z-score
1,COc1ccc(-n2cnc3cc(NS(=O)(=O)c4ccccc4)ccc32)cc1,-0.404
2,CCOc1ccc2nc(COC(=O)c3ccco3)c(C(C)=O)[n+]([O-])c2c1,0.943
3,CCOc1ccccc1C(=O)Nc1nnc(C(C)C)s1,0.724
4,O=C1c2ccccc2C(=O)N1CCCCn1c(=O)oc2ccccc21,-0.258
5,O=C(Nc1ccc2c3c(cccc13)CC2)c1cccc([N+](=O)[O-])c1,0.00702
6,O=C(NCc1ccccc1Cl)c1cnccn1,0.0726
7,CCOCc1nnc(NC(=O)c2cc(Cl)ccc2OC)s1,-0.179
8,Cc1csc(NC(=O)c2cccs2)n1,0.0104
9,CCCCn1c(CN2C(=O)c3ccccc3C2=O)nc2ccccc2c1=O,0.0111
10,COc1cc([N+](=O)[O-])ccc1NC(=S)NCc1ccccn1,-0.161
11,CCC(=O)Nc1cc2c(cc1C(=O)CC)OCCO2,-0.724
12,COc1cc(C2=NOC(C(=O)N3CCCc4ccccc43)C2)cc(OC)c1OC (configuration not stated),0.0774
13,COc1ccc2oc(=O)c(C(=O)N3CCN(c4ccc(F)cc4)CC3)cc2c1,-0.61
14,CCC(=O)N1CCn2c1nc1ccccc12,0.17
15,Cc1ccn(CCSCC(=O)O)n1,0.0165
16,Cn1c(=O)c2c(nc(N3CCNCC3)n2Cc2cccc3ccccc23)n(C)c1=O,-1.19
17,CC(=O)OC1c2ccccc2C(=O)N1Cc1ccccc1Cl (configuration not stated),-0.295
18,O=C(Cn1c2ccccc2c(=O)c2ccccc21)Nc1ccccc1F,-0.188
19,Cc1[nH]n(-c2ccccc2)c(=O)c1/C=N/NC(=O)c1cccc([N+](=O)[O-])c1,-0.376
20,Fc1ccc(C2CC(c3cccs3)=NN2C(=S)Nc2ccccc2)cc1 (configuration not stated),-0.175
21,CCOCC(=O)N1CCCC(C(=O)OCC)C1 (configuration not stated),0.539
22,COCc1cc(=O)[nH]c(Nc2nc(C)c3ccccc3n2)n1,-0.43
23,O=C(Nc1ccccc1C(=O)N1CCOCC1)C1CCCO1 (configuration not stated),1.1
24,N=c1c(C(=O)NCc2ccccc2)cc2c(=O)n3ccccc3nc2n1Cc1ccco1,0.0142

row,Structure (SMILES),z-score
1,O=C(Nc1ccc(F)cc1F)c1sccc1SCc1cccc(C(F)(F)F)c1,-0.225
2,CC(C)C1N=C2c3ccccc3N=C(SCC#N)N2C1=O (configuration not stated),-0.449
3,CSc1nc(N(C)NC(=O)c2ccc(F)cc2)c2ccccc2n1,-0.000337
4,COc1ccc(CCNC(=O)CSc2nncn2N)cc1OC,0.392
5,CCc1cccc(OCCOCCN2CCCC2)c1,0.338
6,NC(=O)CCn1nc(-c2ccc(Cl)cc2)c2ccccc2c1=O,-0.686
7,N#Cc1c(Nc2ccccc2)sc(C(=O)C2CC2)c1N,-0.0602
8,CCOC(=O)c1c(NCC(C)C)c2ccccc2[nH]c1=O,-0.269
9,FC(F)(F)c1cccc(NC(=S)NCCN2CCOCC2)c1,0.522
10,Cc1cc(C(=O)N2CCN(C(c3ccccc3)c3ccccc3)CC2)on1,0.377
11,O=C1CCCCCC1C1(O)C(=O)Nc2ccccc21 (configuration not stated),-0.185
12,COc1cccc(-c2nc(=S)c3c(n2Cc2ccco2)CCCC3)c1,0.708
13,Cc1oc(/C=N/NC(=O)CN(c2ccccc2Cl)S(C)(=O)=O)cc1Br,0.329
14,N#Cc1c(C(F)(F)F)cc(-c2cccs2)nc1SCc1cccnc1,-0.248
15,Cc1oc(-c2ccccc2Cl)[n+]([O-])c1C,-0.0205
16,CCC1(O)CC(C(=O)OC)=NN1C(=O)c1ccccc1 (configuration not stated),0.602
17,O=C(Nc1ccccc1C(=O)N/N=C/c1ccco1)c1ccccc1,active: 3.37
18,Cc1[nH]c2ccccc2c1Cc1nnc(SCc2ccccc2)o1,0.39
19,O=C(Nc1ccc([N+](=O)[O-])cn1)c1cc(-c2cccc(Br)c2)nc2ccccc12,0.61
20,CCSc1nnc(NC(=O)CC)s1,active: 5.27
21,COC(=O)c1[nH]c2ccccc2c1NC(=O)CCN1CCSCC1,-0.0198
22,CCOc1c2ccc(C(=O)NCc3cc(C(F)(F)F)cc(C(F)(F)F)c3)cc2nn1C,0.112
23,Cc1noc(C)c1COc1cccc(C(=O)NCc2cccc(Cl)c2)c1,-0.712
24,O=C(CSc1nccc(=O)[nH]1)Nc1ccc(Br)c(Cl)c1,-1.92

row,Structure (SMILES),z-score
1,Cc1cccc2c(CC(=O)O)noc12,0.0167
2,O=C(OCC(F)(F)F)c1cccc(COc2ccc3ccccc3c2)c1,-0.207
3,Cc1ccc(-n2ncc3c(=O)n(CC#N)cnc32)cc1,0.402
4,CCCCNC(=O)Nc1cc(C(=O)OC)ccc1Cl,-0.138
5,CN1C(=O)c2ccccc2C(C(=O)O)C1c1cccc(F)c1 (configuration not stated),-0.178
6,CNC(=S)NNC(=O)c1cccn(Cc2ccc(Cl)cc2Cl)c1=O,-0.0869
7,Cc1ccnn2c(-c3ccccc3)c3c(=O)n(C)c(=O)n(C)c3c12,0.00226
8,Fc1cccc(CSc2ccc(-c3ccco3)nn2)c1,-0.249
9,CC(C)Sc1nc(-c2ccccc2)cc(=O)[nH]1,-0.232
10,Cc1ccc2c(c1)NC(=O)C(CC(=O)NCCCN1CCc3ccccc3C1)O2 (configuration not stated),-0.518
11,CCc1ccc(C(=O)COC(=O)C(CCSC)NC(=O)C23CC4CC(CC(C4)C2)C3)cc1 (configuration not stated),-0.0604
12,COc1ccccc1NC(=O)c1ccccc1NC(=O)c1cc(Cl)ccc1NC(=O)c1ccco1,0.0353
13,CCN(CC)CCCN1C(=O)C(O)=C(C(=O)c2sc(C)nc2C)C1c1ccco1 (configuration not stated),-0.418
14,CCn1c(C)nc2cc(-c3nnc(-c4c(-c5ccccc5)noc4C)o3)ccc21,-1.45
15,CSc1cccc(NC(=O)CN(C)S(=O)(=O)c2ccc(C)cc2)c1,-0.0574
16,Cc1cc(=O)n(CNC(=O)c2ccccc2)c(=S)[nH]1,-0.214
17,COc1cc(/C=N/Nc2nn3cnnc3c3ccccc23)cc(OC)c1OC,-0.0927
18,Cc1cc(O)c(/C=N/Nc2ccc(Cl)cc2)c(=O)o1,0.289
19,Cc1cc(NC(=O)/C=C/c2ccccc2)no1,-0.0449
20,CCC(=O)Nc1c(-c2cccs2)c(=O)c2ccccc2n1C,-0.205
21,COc1ccc(/C=C/c2nc(-c3ccccc3O)n[nH]2)cc1OC,-0.135
22,Oc1ccccc1-c1nc(N2CCN(Cc3ccccc3)CC2)c2ccccc2n1,0.428
23,CCN1CCN(C(=O)C(C)N(c2ccc(C)cc2)S(C)(=O)=O)CC1 (configuration not stated),1.05
24,Fc1ccc(COc2ccc(Br)cc2CNCc2ccncc2)cc1,-0.78

row,Structure (SMILES),z-score
1,CCOC(=O)c1cccc(Nc2nc(C)cc(C)n2)c1,0.076
2,S=c1[nH]nc(-c2ccc3ccccc3n2)n1-c1ccccc1Cl,0.0824
3,CN=C(C)C1=C(O)C(C(=O)OC)C(C)(C)CC1=O (configuration not stated),1.07
4,CCc1ccccc1NC(=O)CN1C(=O)C2CCCN2c2ncc(Cl)cc21 (configuration not stated),0.0582
5,CN(C)c1ccc(P(=O)(Nc2ccc([N+](=O)[O-])cc2)N2CCOCC2)c(NC(=O)c2cccs2)c1 (configuration not stated),-0.185
6,Cc1ccc(Nc2nnc(SCc3ccccc3)s2)cc1,-0.106
7,Cc1cc(Cl)ccc1N1C(=O)CC(NNC(=O)c2cccnc2)C1=O (configuration not stated),-0.296
8,Cc1cc(C)c(OCCCCn2cnc3ccccc3c2=O)c(C)c1,-0.191
9,Cn1c(=O)c2c(nc(NCC3CCCO3)n2C)n(C)c1=O (configuration not stated),0.315
10,C=CCn1c(-c2ccc(N)cc2)nc2ccccc21,-0.275
11,CCOCCCn1c(=O)c(NC(=O)c2ccc(OCC)cc2)c2n(c1=S)CCCCC2,-0.297
12,CCOC(=O)C1CCN(c2ccc(C(N)=O)cc2[N+](=O)[O-])CC1,-0.277
13,COc1ccccc1-c1nc(-c2cccc(C)c2)no1,-0.469
14,Cc1ccc(C2(C)NC(=O)N(CC(=O)NCc3cccs3)C2=O)cc1 (configuration not stated),-0.0552
15,CSc1ccc(C#N)cc1NC(=O)c1ccc(Cl)cc1Cl,0.0336
16,Clc1ccc(-n2ncc3c(NCCN4CCOCC4)ncnc32)cc1,-0.298
17,O=C1C2CC=CCC2C(=O)N1CC1CCCO1 (configuration not stated),0.809
18,Cc1sc(NC(=S)NC(=O)c2cccs2)nc1-c1ccc(CC(C)C)cc1,0.117
19,Cc1cc(NC(=O)CN2C(=O)NC3(CCCCC3)C2=O)no1,0.0457
20,C/C(=N/NC(=O)c1cccs1)c1ccco1,0.507
21,CS(=O)(=O)c1ccc2nc(NC(=O)C3COc4ccccc4O3)sc2c1 (configuration not stated),0.303
